The campaign covered roughly 45,000 compounds. About 200 (0.44%) were called active. About 7% were inconclusive and are not listed. Calls come from the whole dose curve; as a rule, active = well fitted activation curve with a large enough effect; inconclusive = small, poorly fitted or top-dose-only effect; inactive = no such curve, though single readings can be large or run the other way. This is one part of the list.
Test: qHTS of TDP-43 Inhibitors: NCGC Sytravon Library Screen; note: nearly all actives have a fitted effect of over 55% in size; for growth rescue (activation): 0% is about no effect
Conditions: yeast TDP-43 toxicity rescue, BacTiter-Glo growth, 24 h; series mostly up to 46.1 µM; growth rescue (activation): at the top concentration
Outline: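 TDP-43-expressing yeast, pregrown in raffinose, seeded at OD600 0.02 in galactose medium with compound for 24 hr at 30 deg C. Growth read by BacTiter-Glo luminescence, so rescue of toxicity appears as activation.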
Potency is the fitted concentration of half-maximal effect.

Row | SMILES | growth rescue (activation) | Potency
1 | CCOC(=O)N1CCN(Cc2nc(CC3CC3)no2)CC1 | inactive: -4.22% | –
2 | CCSc1nnc(NC(=O)[C@@H](NC(=O)c2ccc(C(C)(C)C)cc2)C(C)C)s1 | inactive: 7.74% | –
3 | O=C(CCN1C(=O)c2cccc([N+](=O)[O-])c2C1=O)NC1CCCCCC1 | inactive: 18.6% | –
4 | CCCCCCn1c(=O)[nH]c2c(c1=O)CCC2 | inactive: 8.82% | –
5 | CCC(CC)C(=O)NCCCCc1ccccc1 | inactive: 20.1% | –
6 | CCCOc1ccc(C2C(C(=O)OC)=C(C)N=C3SCCC(=O)N32)cc1OCC (stereo not drawn) | inactive: 7.96% | –
7 | O=C(Cn1c(=O)oc2ccccc21)Nc1ccccc1C(F)(F)F | inactive: 14.2% | –
8 | CNc1nc(C)nc(N/N=C/c2ccccc2)n1 | inactive: 8.69% | –
9 | COCCCNC(=O)/C(C#N)=C/c1c(N2CCCCCC2)nc2ccccn2c1=O | inactive: 5.95% | –
10 | COc1ccc(-n2cc(C(=O)O)c(=O)cc2C)cc1 | inactive: -1.47% | –
11 | Cc1cc(NC(=O)CSc2n[nH]c(-c3ccccc3Br)n2)no1 | inactive: -16% | –
12 | Cc1ccc(NC(=O)CSc2nc(N)cc(N)n2)cc1S(=O)(=O)N1CCOCC1 | inactive: -20.4% | –
13 | Nc1cc(N)nc(SCC(=O)NCC(=O)Nc2ccc(F)c(F)c2F)n1 | inactive: -17.5% | –
14 | CCCc1nnc(SCC(=O)Nc2nccs2)o1 | inactive: 4.26% | –
15 | CN(CCOc1ccccc1)C(=O)C1CCC(=O)N(CCN2CCOCC2)C1 (stereo not drawn) | inactive: 11.4% | –
16 | CN1CCCC(OC(=O)c2cccc(S(=O)(=O)N3CCCCCC3)c2)C1 (stereo not drawn) | inactive: -0.0778% | –
17 | O=C(COC(=O)c1sc2ccccc2c1Cl)NCC1CCCCC1 | inactive: 5.36% | –
18 | NC(=S)N/N=C/c1ccc(-c2ccc(SC(F)F)cc2)o1 | inactive: 32.6% | –
19 | Cc1nc(N2CCN(c3ccccn3)CC2)c2c(C)c(C(=O)N3CCN(c4ccccc4F)CC3)sc2n1 | inactive: 2.98% | –
20 | COc1cccc(N=CC=C2OC(C)(C)C(C)(C)O2)c1 | inactive: -16.7% | –
21 | CC1CC1c1ccc(/C=C(\C#N)C(=O)Nc2ccc(Cl)cc2Cl)o1 (stereo not drawn) | inactive: -3.93% | –
22 | CN(CCCC(=O)N1CCCC(C(N)=O)C1)S(=O)(=O)c1ccc(F)cc1 (stereo not drawn) | inactive: 9.31% | –

Row | SMILES | growth rescue (activation) | Potency
23 | C/C(=N\NC(=O)CSc1nc(C)cc(C)n1)c1ccc([N+](=O)[O-])cc1 | inactive: -16.1% | –
24 | COc1ccc(C(CC(=O)O)NC(=O)COc2ccc(C)cc2)cc1OC (stereo not drawn) | inactive: 15% | –
25 | CCOC(=O)NC(=O)CSc1nc2ccccc2[nH]1 | inactive: -1.31% | –
26 | CCCCCC(=O)NNC1CC(=O)N(c2ccccc2)C1=O (stereo not drawn) | inactive: -16.2% | –
27 | CC(=O)c1ccc(OC(=O)CCc2nc3ccccc3s2)cc1 | inactive: -16.4% | –
28 | COC(=O)C1=C(C)NC(=S)NC1c1ccc(-c2cc(Cl)ccc2Cl)o1 (stereo not drawn) | inactive: 27.4% | –
29 | Cc1nc(-c2ccccc2)sc1C(=O)O | inactive: 25% | –
30 | CC(C)CC(=O)N(Cc1ccc(F)cc1)C1CCS(=O)(=O)C1 (stereo not drawn) | inactive: 3.07% | –
31 | CCCCC(=O)N(C)c1c(C)nc2ccc(C(=O)N(C)Cc3ccco3)cn12 | inactive: -3.12% | –
32 | COC(=O)CSc1ccsc1C(=O)O | inactive: 2.17% | –
33 | COc1cccc(C(O)c2nc(-c3cncnc3)cs2)c1 (stereo not drawn) | inactive: 14.9% | –
34 | O=C1C=C(c2cccs2)C[C@H](c2ccccc2)[C@H]1n1nnc([N+](=O)[O-])n1 | inactive: -67% | –
35 | CCN(CC)c1ccc(N=Nc2nn(C)c(C)c2[N+](=O)[O-])cc1 | inactive: 8.79% | –
36 | O=C1CC(c2ccccc2)Sc2nc(-c3ccccc3)c(-c3ccccc3)n21 (stereo not drawn) | inactive: 21.1% | –
37 | COc1ccc(C(=O)NCc2ncccc2C)cc1OC1CCN(C(C)=O)CC1 | inactive: 7.26% | –
38 | CCCn1cnc2cc(NCc3ccc(Br)cc3)ccc21 | inactive: 6.77% | –
39 | COc1ccc(/C=N/NC(=O)CNC(=O)c2ccncc2)cc1 | inactive: 15.2% | –
40 | Clc1cccc(COn2c(-c3ccc(Cl)cc3Cl)nc3ncccc32)c1 | – | active: 25.1 µM
41 | CNc1ncnc2c1ncn2[C@H]1CN(Cc2ccc(OC)cc2)C[C@@H](CO)O1 | inactive: 8.11% | –
42 | CCOC(=O)c1c(C)[nH]c(C(=O)COC(=O)c2ccco2)c1C | inactive: 6.96% | –
43 | Cn1cccc1C(=O)NCCc1ccccc1 | inactive: 1.29% | –
44 | COc1ccc(C(=O)NNC(=O)C2CCN(S(=O)(=O)c3ccc(C)cc3)CC2)cc1 | inactive: -7.9% | –

Row | SMILES | growth rescue (activation) | Potency
45 | Cc1ccc2[nH]c(CSc3ccccc3)cc(=O)c2c1 | inactive: -2.37% | –
46 | CCCn1c(=O)c2c(nc3n2CCS3)n(C)c1=O | inactive: 12.6% | –
47 | CC(C)CCNC(=O)CN(Cc1ccccc1)C(=O)CCC(=O)Nc1nccs1 | inactive: -0.503% | –
48 | COCCCNC(=O)Cn1cnc2sc(C)c(S(=O)(=O)N3CCN(c4ncccn4)CC3)c2c1=O | inactive: 5.38% | –
49 | CN(C)c1ccc(/C=N/n2c(-c3cccnc3)n[nH]c2=S)cc1 | inactive: 0.0231% | –
50 | COc1ccc(CN2CCC(n3nccc3NC(=O)C3CC3)CC2)cc1O | inactive: 7.46% | –
51 | O=C(C1=C(c2ccccc2)C(=O)c2ccccc2C1=O)c1ccccc1 | inactive: 4.76% | –
52 | CCC1Oc2ccc(C)cc2N(CC(=O)NC2CCCCC2)C1=O (stereo not drawn) | inactive: 5.99% | –
53 | CCOc1ccc(S(=O)(=O)n2cc(F)c(=O)[nH]c2=O)cc1 | inactive: 2.6% | –
54 | COc1cccc(-c2nnc(SCC3CNC(=O)O3)n2-c2ccc(Cl)cc2)c1 (stereo not drawn) | inactive: -2.01% | –
55 | CN1CCN(C(=S)c2cn(CCOc3ccccc3)c3ccccc23)CC1 | inactive: -2.59% | –
56 | CCN(CC(=O)Nc1ccc(OC)cc1)CC(=O)Nc1ccc(Br)cc1F | inactive: -2.91% | –
57 | CCn1cc([N+](=O)[O-])c(C(=O)NCc2ccc3c(c2)OCO3)n1 | inactive: 11.2% | –
58 | Cc1ccc(NC(=O)c2cnccn2)cc1S(=O)(=O)N1CCCCCC1 | inactive: 32.8% | –
59 | CCCn1c(SCC(=O)NC2CCCCC2)nnc1-c1cccnc1 | inactive: 2.86% | –
60 | CCOc1ncccc1C(=O)Nc1ccc(S(=O)(=O)N2CCCC2)cc1 | inactive: 3.84% | –
61 | COC(=O)C1=C(C)NC(=O)C1(NC(=O)c1cccnc1)C(F)(F)F (stereo not drawn) | inactive: 21.8% | –
62 | CCOC(=O)CCC(NC(=O)CCCC(=O)NC(CCC(=O)OCC)C(=O)OCC)C(=O)OCC (stereo not drawn) | inactive: 14.7% | –
63 | Cn1c(CCCNC(=O)c2ccco2)nc2ccccc21 | inactive: 6.07% | –
64 | CN(C)S(=O)(=O)c1ccc(NC(=O)CCNC(=O)c2ccco2)cc1 | inactive: 7.69% | –
65 | CCOc1ccc2[nH]c(=O)c(CN(CCCO)S(=O)(=O)c3ccc(F)cc3)cc2c1 | inactive: 17.4% | –
66 | O=C(CC1C(=O)NCCN1Cc1ccc(F)cc1Cl)NC1CCCCCCC1 (stereo not drawn) | inactive: 0.573% | –

Row | SMILES | growth rescue (activation) | Potency
67 | Cc1ccc(C(=O)Nc2ccc3c4c(cccc24)CC3)cc1[N+](=O)[O-] | inactive: 19.6% | –
68 | CCN(CC)C(=O)c1sc(NC(=O)C(C)C)c(C#N)c1C | inactive: -5.2% | –
69 | Cc1cc(C(=O)NCc2ccccc2F)c2ccccc2n1 | inactive: 16.5% | –
70 | CCn1c(SCC(=O)N2CCN(C)CC2)nc2c1c(=O)n(C)c(=O)n2C | inactive: 3.09% | –
71 | COC(=O)Cc1[nH]n(-c2nc3ccccc3s2)c(=O)c1C(C)=Nc1ccc(C)cc1 | inactive: -3.26% | –
72 | CCc1nc2ccc(C(=O)NCc3ccc(OC)cc3)cn2c1N(C)C(=O)Cc1ccccc1 | inactive: -11.1% | –
73 | c1ccc(CN2CCC(Nc3nc(-c4cccs4)nc4ccccc34)CC2)cc1 | inactive: 17.6% | –
74 | CCOC(=O)Cc1csc(NS(=O)(=O)c2ccc(OC)cc2)n1 | inactive: -3.75% | –
75 | CCN(CC)c1ccc(/C=N/N2C(C)CCCC2C)c(O)c1 (stereo not drawn) | inactive: 7.11% | –
76 | O=C(NC1CCCCC1)c1cc(N2C(=O)CCC2=O)ccc1Cl | inactive: -12% | –
77 | CCCCNC(=O)c1ccc2nc(CC)c(N(CCC(C)C)CCN(C)C)n2c1 | inactive: 7.18% | –
78 | O=C(Nc1nncs1)c1ccc2c(c1)OCO2 | inactive: -9.58% | –
79 | O=C(CSc1nc(-c2cccs2)cc(C(F)(F)F)n1)Nc1cc(OCC(F)(F)C(F)F)cc([N+](=O)[O-])c1 | inactive: 5.12% | –
80 | CN(C(=O)CN1C(=O)NC2(CCc3ccccc32)C1=O)C1CCCCC1 (stereo not drawn) | inactive: 11.5% | –
81 | OCCNc1nc(Nc2cccc(O)c2)nc2ccccc12 | inactive: 9.19% | –
82 | CCc1nnc(NC(=O)c2oc3ccccc3c2COC(C)C)s1 | inactive: 16.2% | –
83 | COC(=O)c1sccc1NC(=O)CSCCc1ccccn1 | inactive: 3.3% | –
84 | COc1ccc(-c2cc(-c3ccc(O)cc3)nc(N)c2C#N)cc1OC | inactive: 3.18% | –
85 | COc1ccc(N(C(=O)Cn2nnc(-c3ccc(F)cc3)n2)C(C)C(=O)NC2CCCC2)cc1 (stereo not drawn) | inactive: -19.5% | –
86 | Cc1ccsc1/C=N/NC(=O)CN1CCN(Cc2ccccc2)CC1 | inactive: 9.41% | –
87 | CC(=O)Nc1ccc(S(=O)(=O)NC2(C(F)(F)F)C(=O)Nc3c2c(=O)[nH]c(=O)n3Cc2ccccc2)cc1 (stereo not drawn) | inactive: -7.05% | –
88 | Cc1sc2ncnc(N3CCN(C(=O)c4ccco4)CC3)c2c1C | inactive: 27% | –

Row | SMILES | growth rescue (activation) | Potency
89 | CON/C=N/C(=S)Nc1ncc(C(F)(F)F)cc1Cl | inactive: -0.572% | –
90 | S=c1[nH]c(-c2ccccc2)cn1/N=C/c1ccncc1 | inactive: -4.4% | –
91 | CCOC(=O)c1cc(-c2ccccc2)sc1NC(=O)CC | inactive: -1.95% | –
92 | Cc1cccc(-n2ccc(=O)c(C(=O)O)n2)c1 | inactive: -15.3% | –
93 | Cc1ccc(-n2c(SCC(=O)N3Cc4ccccc4CC3C(=O)O)nnc2-c2cccnc2)c(C)c1 (stereo not drawn) | inactive: 0.259% | –
94 | CC(=O)Nc1cc(-c2cccc(C(=O)N(C)C)c2)cn2c(-c3ccc(F)cc3)cnc12 | inactive: -1.1% | –
95 | CCN(CC)C(=O)CC(c1ccc(F)cc1)c1ccc(OC)cc1 (stereo not drawn) | inactive: 22.1% | –
96 | O=C(COC(=O)c1ccc2c(c1)OCCO2)Nc1cc(S(=O)(=O)N2CCOCC2)ccc1Cl | inactive: 5.33% | –
97 | CCCn1c(=O)[nH]c(=O)c2c1nc(-c1ccc(OC(F)F)c(OC)c1)n2CCOC | inactive: -7.28% | –
98 | Cc1cccc(Nc2c(-c3ccc(O)cc3)nc3ncccn23)c1 | inactive: -2.62% | –
99 | O=C(Nc1cccnc1)c1cc(-c2ccc(Cl)cc2Cl)on1 | inactive: 10.3% | –
100 | COc1ccccc1Nc1ccc(C(=O)O)cc1[N+](=O)[O-] | inactive: 3.26% | –
101 | CCOc1ccccc1C1C2CCCCC2(O)CCN1C(=O)c1cccs1 (stereo not drawn) | inactive: 10.4% | –
102 | Cc1cc(C)c(S(=O)(=O)N2CCCC(C(=O)N3CCCC3)C2)c(C)c1 (stereo not drawn) | inactive: 29.7% | –
103 | COCCN1C(=O)c2ccccc2C(C(=O)N2CCN(c3ccccn3)CC2)C1c1ccc(F)cc1 (stereo not drawn) | inactive: 5.3% | –
104 | CCN(C(=O)CSc1nc(-c2cccs2)nc2ccccc12)C1CCS(=O)(=O)C1 (stereo not drawn) | inactive: 7.95% | –
105 | COCc1c(C(=O)N/N=C\c2cccs2)nnn1-c1nonc1N | inactive: 6.59% | –
106 | COc1ccc(CNC(=O)N2CCN(c3ccccc3OC)CC2)cc1 | inactive: 16.8% | –
107 | Cc1ccc(S(=O)(=O)NC(=O)C2(C)CCN2C(=O)Cc2ccc(Cl)cc2Cl)nc1 (stereo not drawn) | inactive: 14.5% | –
108 | O=c1[nH]c(C2CCN(S(=O)(=O)c3ccc([N+](=O)[O-])cc3)CC2)nc2c1nnn2Cc1ccccc1 | inactive: 19.6% | –

Source: PubChem BioAssay AID1347073 (National Center for Advancing Translational Sciences (NCATS), 2019)
